# From PMC4336329 (PLoS ONE, 2015)
# About 14,000 (4.5%) of roughly 310,000 compounds showed an effect of 50% or more. The effect is printed as a negative number. The list shows a part of the results.
# Target: human ether-à-go-go-related gene (hERG) potassium channel (human, UniProt Q12809)
# Test: primary screen, population patch clamp on CHO cells stably expressing hERG
# 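Also: peak tail current of the secondary pulse compared with the same well before compound.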
# Sequence of human ether-à-go-go-related gene (hERG) potassium channel (Q12809 whole entry, looked up): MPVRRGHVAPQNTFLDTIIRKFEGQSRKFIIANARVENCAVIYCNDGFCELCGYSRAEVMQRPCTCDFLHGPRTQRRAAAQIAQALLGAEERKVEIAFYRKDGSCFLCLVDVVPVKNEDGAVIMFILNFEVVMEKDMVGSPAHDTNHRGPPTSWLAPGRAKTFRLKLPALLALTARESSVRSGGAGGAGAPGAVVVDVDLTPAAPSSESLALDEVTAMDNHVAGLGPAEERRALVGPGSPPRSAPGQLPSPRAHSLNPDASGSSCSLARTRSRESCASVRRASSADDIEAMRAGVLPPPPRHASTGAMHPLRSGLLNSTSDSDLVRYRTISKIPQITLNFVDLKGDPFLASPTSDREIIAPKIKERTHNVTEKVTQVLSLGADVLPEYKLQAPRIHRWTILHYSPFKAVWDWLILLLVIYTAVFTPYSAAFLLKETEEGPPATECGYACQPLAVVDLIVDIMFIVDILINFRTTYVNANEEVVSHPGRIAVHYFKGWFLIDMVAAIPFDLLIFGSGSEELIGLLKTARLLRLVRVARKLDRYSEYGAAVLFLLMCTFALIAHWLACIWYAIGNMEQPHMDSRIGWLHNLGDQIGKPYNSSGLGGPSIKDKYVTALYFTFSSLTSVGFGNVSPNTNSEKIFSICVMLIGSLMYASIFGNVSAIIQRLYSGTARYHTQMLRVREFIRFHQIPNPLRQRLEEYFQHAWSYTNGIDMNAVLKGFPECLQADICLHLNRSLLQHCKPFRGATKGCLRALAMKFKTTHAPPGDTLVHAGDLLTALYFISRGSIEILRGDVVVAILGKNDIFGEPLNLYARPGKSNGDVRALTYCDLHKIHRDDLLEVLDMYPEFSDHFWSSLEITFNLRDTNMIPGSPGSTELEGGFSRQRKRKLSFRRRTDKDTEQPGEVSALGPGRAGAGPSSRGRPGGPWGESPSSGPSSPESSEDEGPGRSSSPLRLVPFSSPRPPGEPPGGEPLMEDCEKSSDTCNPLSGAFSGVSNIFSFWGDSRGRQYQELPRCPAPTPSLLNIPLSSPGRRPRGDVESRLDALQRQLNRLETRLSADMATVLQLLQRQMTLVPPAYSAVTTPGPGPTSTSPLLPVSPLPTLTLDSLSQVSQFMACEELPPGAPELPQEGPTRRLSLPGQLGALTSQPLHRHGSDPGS
row,SMILES,"hERG current change (%, negative = inhibition) at 10uM [%]"
1,CCOC(=O)c1[nH]c(=O)[nH]c1CSc1ccccn1,2.05
2,Cc1ccc(-c2ccc(C(=O)O)c(C)n2)cc1,-0.232
3,COc1ccccc1CNS(=O)(=O)CCNC(=O)c1ccccc1,7.75
4,Cc1ccc(C)c(CN2C(=O)COc3ccccc32)c1,14.1
5,Cc1ccc(C2OCC3(CO)COC(c4ccc(C)cc4)N23)cc1 (stereo not drawn),6.28
6,CCOc1ccc(-n2c(C)cc(/C=N/N(C)C)c2C)cc1,2.58
7,Cc1ccccc1-n1nnnc1SCC(=O)NCC1(N2CCOCC2)CCCCC1,-24.9
8,COc1ccc(NS(=O)(=O)c2cc(C)ccc2C)cc1,-16.4
9,CCOc1ccccc1N(CC(=O)NCc1ccccc1)C(=O)CCC(=O)Nc1cc(C)ccn1,-26.6
10,Cc1cc(Cl)ccc1OCCCC(=O)Nc1ccc(S(=O)(=O)Nc2ncccn2)cc1,7.21
11,Cc1ccccc1COC(=O)CCCC1=NS(=O)(=O)c2ccccc2N1,-2.95
12,Cc1ccccc1NC1=NC(=S)N(CC(N)=O)C12CCOC(C)(C)C2 (stereo not drawn),-0.15
13,COC(=O)c1nn(-c2ccc(OC)cc2)c(=O)cc1O,16.9
14,Cc1ccc(-n2nc(C)c3c(C)c(CCC(=O)NCc4ccco4)c(C)nc32)cc1,1.02
15,Cn1c(SCC(=O)c2ccccc2)nc2cccnc21,10.3
16,CC1CC(C)CN(S(=O)(=O)N2CCCC(C(=O)NC(C)c3ccccc3)C2)C1 (stereo not drawn),3.1
17,CC(=O)c1ccc(NS(=O)(=O)c2cccc(C(=O)Nc3ccccc3C(=O)O)c2)cc1,17.6
18,O=C(CNC(=O)OCc1ccccc1)Nc1ccc(Br)cc1C(=O)c1ccccc1Cl,-40.5
19,N#Cc1c(-c2ccccc2)nc(SCC(=O)Nc2ccc(OC(F)(F)Cl)cc2)[nH]c1=O,28.5
20,COc1cc(/C=C2\SC(c3ccc(C)cc3)=NC2=O)ccc1O,-8.45
21,CN(CCc1ccccc1)Cc1nc(-c2cnccn2)no1,22
22,Br.N=c1n(CCN2CCCCC2)c2ccccc2n1CC(=O)c1cccc([N+](=O)[O-])c1,-69
23,CCOC(=O)C1C(=O)OC(C)(C)C1C(CC)C(=O)c1ccccc1 (stereo not drawn),-23.3

row,SMILES,"hERG current change (%, negative = inhibition) at 10uM [%]"
1,CCCNC(=O)c1ccccc1NC(=O)Cc1ccc(OC)c(S(=O)(=O)N2CCOCC2)c1,-30.4
2,CC(=O)N/C(=C\c1ccccc1)C(=O)OCC(=O)N1CCCCCC1,1.94
3,COc1ccc(C(=O)Oc2cc(/C=N/NS(=O)(=O)c3ccc(C)cc3)ccc2OC)cc1,5.96
4,COc1ccc(NC(=S)N(CCO)Cc2ccccc2)cc1,2.34
5,CC(C)C(NC(=O)c1ccc(F)cc1)C(=O)N1CCOCC1 (stereo not drawn),0.564
6,O=C(c1ccccc1Cl)N1CCCC(c2nc3c(nnn3Cc3ccccc3)c(=O)[nH]2)C1 (stereo not drawn),-34.6
7,CCOc1ccccc1C(=O)N(Cc1ccco1)C1CCS(=O)(=O)C1 (stereo not drawn),0.265
8,O=C(c1ccco1)N1CCCC(c2nc3c(nnn3Cc3ccc(F)cc3)c(=O)[nH]2)C1 (stereo not drawn),-14.5
9,Cc1cc2oc(C(=O)Nc3nonc3C)c(C)c2cc1C,20.6
10,COc1ccc(CN2CCN(S(=O)(=O)c3ccc(NC(C)=O)cc3)CC2)cc1.O=C(O)C(=O)O,-29.4
11,Cn1c(=O)c2c(SCC(=O)NCCc3ccccc3)nc(C3CC3)nc2n(C)c1=O,11.3
12,Cc1ccc(-c2ccccc2NC(=O)CCl)o1,1.84
13,COc1ccc(N2CCN(C(=O)C34CCC(C)(C(=O)C3)C4(C)C)CC2)cc1 (stereo not drawn),-0.453
14,COc1cccc(-c2nc(-c3ccc(Br)o3)no2)c1,4.28
15,CCN(CC)CCCNC(=O)CN1C(=O)CSc2ccc(S(=O)(=O)N3CCOCC3)cc21,37.1
16,CCCS(=O)(=O)N1CCN=C1SCc1cccc(F)c1,6.31
17,COc1ccccc1OCc1nnc(SCC(=O)c2cc(Cl)ccc2OC)o1,8.83
18,COC(=O)c1cc(NC(=O)c2ccccc2F)cc(C(=O)OC)c1,19
19,Cc1nn(-c2ccccc2)c2c1C(=O)NC(=O)C(C)(C)C2,5.13
20,O=C(Nc1ccc(Cl)c(Cl)c1)Nc1ccc(N2CCCC2)c(S(=O)(=O)Nc2ccccc2Cl)c1,6.44
21,S=C1c2ccccc2CN1c1ccccc1,1.58
22,O=c1[nH]c(Nc2ccccn2)cc2ccccc12,8.27
23,COc1ccc(NC2CCCN(C(=O)CN3C(=O)c4ccccc4C3=O)C2)cc1OC (stereo not drawn),14

row,SMILES,"hERG current change (%, negative = inhibition) at 10uM [%]"
1,Cc1cccc(NC(=O)CSc2nc(=O)n(CCCN3CCOCC3)c3c2CCCC3)c1,-42.4
2,C=CCCCCCCCCC(=O)NN,13.4
3,CCOC(=O)Cc1csc(NC(=O)NC2(C(F)(F)F)Oc3ccc(Cl)cc3O2)n1 (stereo not drawn),15.8
4,CC(C(=O)NCC1CCCCC1)N1CCc2ccccc2C1 (stereo not drawn),-1.3
5,O=[N+]([O-])c1cccc(Cl)c1NCCNS(=O)(=O)c1ccc(Cl)cc1,-23
6,O=C(c1cc(S(=O)(=O)N2CCOCC2)ccc1F)N1CCCc2ccccc21,-8.23
7,CCSc1nc(N2CCCCC2)c2c(c1C#N)CCCC2,0.658
8,COCCN(C(=O)CNC(=O)c1cccs1)C(C(=O)NC(C)(C)C)c1ccccc1 (stereo not drawn),8.27
9,O=C(Nc1ccc(Cl)c(Cl)c1)C1CCN(C(=O)c2ccco2)CC1,-33.3
10,CC(C(=O)NC(C)(C)C)N(Cc1cccs1)C(=O)CCN1CCc2ccccc21 (stereo not drawn),7.38
11,CC(NS(=O)(=O)c1cc2c3c(c1)CCC(=O)N3CCC2)c1ccccc1 (stereo not drawn),-2.75
12,O=C(NCc1ccc(F)cc1)C1CCN(S(=O)(=O)c2cccc3nonc23)CC1,6.77
13,CCOC(=O)CNS(=O)(=O)c1ccc2c3c(cccc13)C(=O)N2CC,21.9
14,COc1ccc(-n2cc(C#N)c(=O)n(Cc3ccc(F)cc3)c2=O)cc1,7.54
15,O=C(Cc1ccccc1)N1CCN(C(=O)c2ccco2)CC1,5.12
16,COc1ccc(OS(=O)(=O)c2c(C)noc2C)cc1,-1.5
17,CC(C)C(=O)Nc1nnc(SCC(=O)NC2CCCC2)s1,4.35
18,CCOC(=O)CCCN1CC(O)=C(c2nc(-c3ccc(Cl)cc3)cs2)C1=N,-25.9
19,Cc1nc2cc(NCc3ccccc3O)ccc2n1Cc1ccccc1,13.8
20,CCc1ccccc1NC(=S)N1CCN(c2cccc(OC)c2)CC1,24.7
21,O=S(=O)(c1ccccc1)N1CCN(Cc2ccc(Cl)cc2)CC1,-22.7
22,Cc1[nH]n(-c2ccccc2)c(=O)c1/C=N/N1C(=O)c2cccc3cccc(c23)C1=O,3.73
23,CC(=O)Nc1ccc(S(=O)(=O)Nn2cnnc2)cc1,15.6

row,SMILES,"hERG current change (%, negative = inhibition) at 10uM [%]"
1,CSc1ccc(CN2CCCC(N3CCN(c4ccccc4)CC3)C2)cc1 (stereo not drawn),-64.2
2,COc1ccc(N=Cc2c(O)n(Cc3cccs3)c(=O)[nH]c2=O)cc1,10.4
3,CC(=O)Nc1cccc(NC(=O)CSc2nccn2Cc2ccco2)c1,14
4,O=C(c1ccc(F)cc1)C1CCN(C(=S)Nc2ccccc2Cl)CC1,0.35
5,CCOc1ccccc1NC(=O)CCNC(=O)c1ccc(Cl)cc1,5.74
6,O=S(=O)(c1cc(Cl)ccc1Cl)n1nnc2ccccc21,9.97
7,C=CCn1c(=O)n2ncnc2c2c3c(sc21)CCCC3,-59.3
8,Cc1ccc(-n2nnnc2SCC(=O)NC2CC2)cc1C,-9.55
9,CC1CCCCC1NC(=O)c1ccc(S(=O)(=O)NCC2CCCO2)cc1 (stereo not drawn),-10.7
10,O=C(NCCN1CCOCC1)c1csc2c1CCCC2,-11
11,NC(=O)C1CCCN1S(=O)(=O)c1ccc2ccccc2c1 (stereo not drawn),-22.5
12,Cn1c(=O)c2c(ncn2CC(=O)N2CCCc3ccccc32)n(C)c1=O,-3.3
13,CN(C)c1ccc(NC(=O)N2CCOCC2)cc1,-3.34
14,O=C(CCN1CCN(C/C=C/c2ccccc2)CC1)Nc1ccc(Cl)cc1,-78.2
15,N#Cc1ccc(OCC(=O)N2CCN(S(=O)(=O)c3cccc(Cl)c3)CC2)cc1,-71.4
16,Brc1ccc2[nH]c3c(NCc4ccccn4)ncnc3c2c1,-11.1
17,CCOc1ccccc1NC(=O)CCNS(=O)(=O)c1cccc2nonc12,2.65
18,Cc1ccc(S(=O)(=O)Nc2cccc(-c3ccc(N4CCCCCC4)nn3)c2)c(C)c1,13.6
19,CC(C)COC(=O)N(C)c1ccc(C(O)(C(F)(F)F)C(F)(F)F)cc1,6.44
20,CCOC(=O)c1ccc(NC(=O)COC)cc1,-9.45
21,CC1(C)CC2(CC(c3ccc(F)cc3)c3ccc(O)cc3O2)NC(=S)N1 (stereo not drawn),-31.4
